According to a collection of fitness landscapes (doi:10.1126/science.1257360):
The list shows a part of the results.

B1: PhoQ; a variant is named by its letters at X, in order, P23837 (parent)
chain: MKKLLRLFFPLSLRVRFLLATAAVVLVLSLAYGMVALIGYSVSFDKTTFRLLRGESNLFYTLAKWENNKLHVELPENIDKQSPTMTLIYDENGQLLWAQRDVPWLMKMIQPDWLKSNGFHEIEADVNDTSLLLSGDHSIQQQLQEVREDDDDAEMTHSVAVNVYPATSRMPKLTIVVVDTIPVELKSSYMVWSWFIYVLSANLLLVIPLLWVAAWWSLRPIEALAKEVRELEEHNRELLNPATTRELTSLVRNLNRLLKSERERYDKYRTTLTDLTHSLKTPLXXLQXXLRSLRSEKMSVSDAEPVMLEQISRISQQIGYYLHRASMRGGTLLSRELHPVAPLLDNLTSALNKVYQRKGVNISLDISPEISFVGEQNDFVEVMGNVLDNACKYCLEFVEISARQTDEHLYIVVEDDGPGIPLSKREVIFDRGQRVDTLRPGQGVGLAVAREITEQYEGKIVAGESMLGGARMEVIFGRQHSAPKDE

Variants of: B1
Assay: enrichment ratio after two sorts for PhoP signalling (ratio (wild type AVST 3.29)); higher = more functional
Conditions: with PhoP (E. coli)

Variant | enrichment ratio
RNWY | ≤ 0.25
THRW | ≤ 0.25
NHES | ≤ 0.25
GGVS | ≤ 0.25
WSYK | ≤ 0.25
WKLT | ≤ 0.25
VWCG | ≤ 0.25
HKPD | ≤ 0.25
NYNS | ≤ 0.25
AMVT | ≤ 0.25
EIEV | ≤ 0.25
DRIM | ≤ 0.25
DPPW | ≤ 0.25
MDDL | ≤ 0.25
LDPS | ≤ 0.25
PNWG | ≤ 0.25
KGWF | ≤ 0.25
HLDH | ≤ 0.25
RMPA | ≤ 0.25
ICDF | ≤ 0.25
IYSD | ≤ 0.25
MRMR | ≤ 0.25
TLQT | 8.12
IHTH | ≤ 0.25
YKVC | ≤ 0.25
IHVC | ≤ 0.25

Variant | enrichment ratio
TPLR | ≤ 0.25
NRFE | ≤ 0.25
PQNF | ≤ 0.25
GVKL | ≤ 0.25
PNMF | ≤ 0.25
EGYD | ≤ 0.25
ETFG | ≤ 0.25
EFCI | ≤ 0.25
HTPV | ≤ 0.25
NSRA | 0.539
RQWA | ≤ 0.25
NMGQ | ≤ 0.25
GDHN | ≤ 0.25
IHAQ | ≤ 0.25
LGFA | ≤ 0.25
APCL | ≤ 0.25
ESLL | 0.525
AQCP | ≤ 0.25
IIYK | ≤ 0.25
PARQ | ≤ 0.25
KLGM | ≤ 0.25
NGEF | ≤ 0.25
IKIN | ≤ 0.25
DYVH | ≤ 0.25
GWEI | ≤ 0.25
HRMV | ≤ 0.25

Variant | enrichment ratio
HKMS | ≤ 0.25
RPPC | ≤ 0.25
RVTY | ≤ 0.25
VLAR | ≤ 0.25
RCLY | ≤ 0.25
AHHF | ≤ 0.25
GKMY | ≤ 0.25
PHPR | ≤ 0.25
SSYF | 2.66
MHTF | ≤ 0.25
YYYY | ≤ 0.25
QSYF | 7.8
VWDC | ≤ 0.25
MHAE | ≤ 0.25
EILT | ≤ 0.25
PLYF | ≤ 0.25
WTIL | ≤ 0.25
AGWD | ≤ 0.25
PSHH | ≤ 0.25
WRFM | ≤ 0.25
NLRW | ≤ 0.25
IHLQ | ≤ 0.25
NMSK | ≤ 0.25
KQFP | ≤ 0.25
LQVF | ≤ 0.25
RSLY | ≤ 0.25

Variant | enrichment ratio
REYL | ≤ 0.25
TLKM | ≤ 0.25
GHVF | ≤ 0.25
RCPS | ≤ 0.25
WDHM | ≤ 0.25
HLNQ | ≤ 0.25
CCHY | ≤ 0.25
KIFT | ≤ 0.25
SERP | ≤ 0.25
PMCD | ≤ 0.25
GWMW | ≤ 0.25
GPGK | ≤ 0.25
YASM | ≤ 0.25
YEEC | ≤ 0.25
YQDS | ≤ 0.25
WYGH | ≤ 0.25
DYYW | ≤ 0.25
TDYN | ≤ 0.25
MHHP | ≤ 0.25
HKTT | ≤ 0.25
ARNY | ≤ 0.25
DRSG | ≤ 0.25
SHGI | ≤ 0.25
FMGG | ≤ 0.25
VEEI | ≤ 0.25
FFKY | ≤ 0.25

Variant | enrichment ratio
KNNP | ≤ 0.25
HRFW | ≤ 0.25
NETL | ≤ 0.25
ILMR | ≤ 0.25
DMEP | ≤ 0.25
QLFI | ≤ 0.25
LGTY | ≤ 0.25
QMSS | 0.71
NMSW | ≤ 0.25
WTHR | ≤ 0.25
SGMH | 7.55
SMYE | ≤ 0.25
VSYP | ≤ 0.25
WTQA | ≤ 0.25
RDLV | ≤ 0.25
HVVP | ≤ 0.25
GDQQ | ≤ 0.25
DASM | ≤ 0.25
SWVF | ≤ 0.25
KFVY | ≤ 0.25
YTVQ | 0.393
WPTP | ≤ 0.25
FPIW | ≤ 0.25
GFGW | ≤ 0.25
RPIV | ≤ 0.25
STPR | ≤ 0.25

Variant | enrichment ratio
NNNM | ≤ 0.25
AMYP | ≤ 0.25
STQC | 4.1
EIVF | ≤ 0.25
QPLL | ≤ 0.25
ADMY | 0.253
RRDV | ≤ 0.25
QWMS | ≤ 0.25
YMER | ≤ 0.25
CAFK | ≤ 0.25
TRTN | ≤ 0.25
MEEL | ≤ 0.25
AHHG | ≤ 0.25
GYGY | ≤ 0.25
FVTG | ≤ 0.25
ESVR | ≤ 0.25
QTCN | ≤ 0.25
ELYV | ≤ 0.25
TLFC | 0.278
IRAP | ≤ 0.25
KNIQ | ≤ 0.25
EDHH | ≤ 0.25
WNQL | ≤ 0.25
